Viability index data for 67 molecules are collected here from the supplement of paper PMC4723716.

± gives the uncertainty stated by the source. Over roughly 9,900 compounds, “viability index relative to DMSO control” has its median near 1; the lowest 2% begin near 0.85. Some of the results follow.

In this assay the test system is Plasmodium falciparum NF54 stage V gametocytes. The experiment in a line: viability index relative to DMSO control (fraction); higher = less gametocyte killing. To be noted: 2.5 µM, library set: Broad Institute DOS, incubation time: 72 h. The method in brief: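 Gametocytes (P. falciparum NF54, stage V) were treated with compound at 2.5 µM for 72 hr at 37°C in low oxygen, in serum-free medium at 0.75% gametocytemia and 1.25% hematocrit. Counts of 20–70 µm2 red particles, taken from one field per well after MitoTracker Red CMXRos with saponin, were divided by the plate mean of solvent-only wells. This ratio is the viability index.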
The molecule `CO[C@H](CN(C)S(=O)(=O)c1ccc(F)cc1)[C@@H](C)CN(Cc1ccccc1Cl)[C@H](C)CO` gave a viability index of 1.001 ± 0.007.

`CO[C@@H]1CN(C)C(=O)c2cc(NC(=O)Nc3ccccc3F)ccc2OC[C@@H](C)N(C(=O)c2cnccn2)C[C@H]1C`: the viability index amounted to 1.05 ± 0.043.

`C[C@H](CO)N1C[C@H](C)[C@H](CN(C)Cc2ccccc2)OCc2cn(nn2)CCCC1=O` came in with a viability index of 0.976 ± 0.066.

Consider `N#C[C@@H]1[C@@H](c2ccccc2)[C@@H](CO)N1S(=O)(=O)c1cccc(F)c1`, for which the viability index is 1.12 ± 0.05.

`O=C(C[C@@H]1CC[C@H](NS(=O)(=O)c2ccc(F)cc2)[C@H](CO)O1)N1CCN(c2ccccc2)CC1`: the viability index came out at 1.04 ± 0.043.

Turning to `COc1ccc2c3c([C@@H](CO)N(C[C@]33CN(C3)C(=O)c3ccccc3F)C(=O)Nc3ccccc3F)n(C)c2c1`, the viability index was 0.97 ± 0.053.

Molecule `O=C(C[C@@H]1CC[C@@H]2NC[C@@H](O)COC[C@H]2O1)N1CCc2ccccc2C1` registered a viability index of 1.03 ± 0.16.

As to `COc1ccc2c3c([C@@H](CO)N(C[C@]33CCN(Cc4nccs4)CC3)S(C)(=O)=O)n(C)c2c1`, the viability index stood at 1.09 ± 0.015.

With `CNC[C@@H]1Oc2ccc(NS(=O)(=O)c3ccc(OC)cc3)cc2C(=O)N([C@H](C)CO)C[C@H]1C`, the viability index was found to be 0.967 ± 0.061.

`COc1ccc2c3c([C@@H](CO)N(C[C@]33CCN(Cc4cccnc4)CC3)S(=O)(=O)c3ccc(C)cc3)n(C)c2c1` showed a viability index of 0.971 ± 0.04.

As for `N#Cc1cccc(-c2ccc3c(c2)[C@H]2[C@H](CCN2Cc2ccc4c(c2)OCO4)[C@@H](CO)N3)c1`, the viability index is 1.14 ± 0.03.

On to `Cc1ccc(S(=O)(=O)N(C)C[C@@H]2OCCCC[C@H](C)Oc3ccc(NC(=O)c4ccncc4)cc3C(=O)N([C@H](C)CO)C[C@@H]2C)cc1`, for which the viability index was 1.09 ± 0.029.

Turning to `CO[C@H]1CN(C)C(=O)c2ccc(NC(=O)Nc3cc(F)ccc3F)cc2OC[C@H](C)N(C(=O)c2ccccn2)C[C@H]1C`, the viability index was 1.05 ± 0.059.

In turn, `C[C@@H]1CCCCO[C@H](CN(C)Cc2ccc3c(c2)OCO3)[C@@H](C)CN([C@H](C)CO)C(=O)c2cc(NS(=O)(=O)c3cn(C)cn3)ccc2O1` gave a viability index of 0.999 ± 0.018.

`COc1cccc(S(=O)(=O)N2CCCCN3[C@H](CO)[C@H](c4ccc(C#CCC(C)C)cc4)[C@@H]3C2)c1` had a viability index of 1 ± 0.078.

Regarding `C[C@@H]1CN([C@@H](C)CO)C(=O)c2c(c3ccccc3n2C)-c2ccccc2CO[C@@H]1CN(C)C(=O)[C@H](Cc1ccccc1)N(C)C`, the viability index amounted to 0.942 ± 0.2.

On to `O=C(C1CCCCC1)N1CC(=O)N2[C@@H](CO)[C@@H](c3ccc(-c4ccccc4F)cc3)[C@@H]2C1`, for which the viability index is 1.04 ± 0.034.

In turn, `N#C[C@@H]1[C@H](c2ccccc2C2=CCCCC2)[C@@H](CO)N1C(=O)c1ccccn1` displayed a viability index of 1.03 ± 0.066.

For the molecule `C[C@@H]1CN([C@@H](C)CO)C(=O)c2ccccc2-c2ccccc2CO[C@@H]1CN(C)Cc1cccc2c1OCCCO2`, the viability index came out at 1 ± 0.11.

Take `C[C@H]1CN([C@@H](C)CO)C(=O)Cc2cc(NC(=O)Nc3ccc(F)cc3)ccc2O[C@H]1CN(C)S(C)(=O)=O`: the viability index amounted to 0.931 ± 0.081.

On to `CO[C@@H]1CN(C)C(=O)c2cc(NC(=O)c3ccc4c(c3)OCO4)ccc2OC[C@@H](C)N(CCC(F)(F)F)C[C@@H]1C`, for which the viability index worked out at 1.008 ± 0.0018.

Regarding `CC(=O)N1[C@@H](CO)[C@@H](c2ccccc2)[C@@H]1CN(CC(C)C)C(=O)c1ccccn1`, the viability index was determined as 0.976 ± 0.064.

`CO[C@@H]1CN(C)C(=O)c2ccc(NC(=O)c3ccccc3F)cc2OC[C@@H](C)N(C)C[C@@H]1C`: the viability index was 1.068 ± 0.009.

For the molecule `C[C@H]1CN([C@@H](C)CO)C(=O)Cc2cc(N(C)C)ccc2O[C@@H]1CN(C)Cc1ccc(-c2ccccc2)cc1`, the viability index was 1.08 ± 0.05.

As to `CO[C@H](C(=O)N(C)C[C@H]1OCc2ccccc2-c2ccccc2C(=O)N([C@H](C)CO)C[C@@H]1C)c1ccccc1`, the viability index is 1.07 ± 0.06.

Consider `O=C(C[C@H]1CC[C@@H]2[C@H](COC[C@H](O)CN2C(=O)c2ccccc2F)O1)NCc1ccc(F)cc1`, for which the viability index came out at 1.02 ± 0.055.

`O=C(c1ccc(F)cc1)N1CC(=O)N2[C@@H](CO)[C@H](c3ccc(C#CCC4CCCC4)cc3)[C@@H]2C1` showed a viability index of 1.03 ± 0.058.

Molecule `CCCC(=O)N1C[C@]2(CCN(CC2)S(C)(=O)=O)c2c([nH]c3cc(OC)ccc23)[C@@H]1CO` yielded a viability index of 1.02 ± 0.06.

On to `COc1ccc(NC(=O)N(C)C[C@@H]2OCCCC[C@H](C)Oc3ccc(NC(=O)c4ccncc4)cc3C(=O)N([C@@H](C)CO)C[C@@H]2C)cc1`, for which the viability index is 1.05 ± 0.013.

Consider `C[C@H](CO)N1C[C@H](C)[C@H](CN(C)C(=O)c2ccncc2)OCCCC[C@H](C)Oc2ccc(NS(=O)(=O)c3cccs3)cc2C1=O`, for which the viability index turned out to be 1.11 ± 0.088.

In turn, `C[C@@H]1CCCCO[C@H](CN(C)C(=O)Nc2cccc3ccccc23)[C@H](C)CN([C@@H](C)CO)C(=O)c2cc(NC(=O)CCC(F)(F)F)ccc2O1` showed a viability index of 0.955 ± 0.073.

With `O=C(c1cccc(F)c1)N1CCCCN2[C@H](CO)[C@@H](c3ccc(C#CC4(O)CCCC4)cc3)[C@H]2C1`, the viability index was determined as 1.06 ± 0.025.

In the case of `C[C@H]1CN([C@@H](C)CO)S(=O)(=O)c2ccc(-c3ccc(F)cc3)cc2O[C@@H]1CN(C)Cc1ccccc1C(=O)O`, the viability index was 0.994 ± 0.053.

On to `O=C1CN(S(=O)(=O)c2cccc(F)c2)C[C@@H]2[C@@H](c3ccc(C4=CCCC4)cc3)[C@H](CO)N12`, for which the viability index amounted to 0.997 ± 0.064.

In turn, `O=C(C[C@@H]1C[C@@H]2c3cc(NS(=O)(=O)c4ccc(F)cc4)ccc3O[C@@H]2[C@@H](CO)O1)NCc1cccnc1` came in with a viability index of 1.147 ± 0.01.

On to `Cc1ccc(S(=O)(=O)N2C[C@@H](O)COC[C@@H]3O[C@H](CC(=O)NCc4ccc5c(c4)OCO5)CC[C@H]32)cc1`, for which the viability index came to 1.01 ± 0.024.

As for `C[C@@H]1CN([C@@H](C)CO)C(=O)c2ccccc2-c2ccccc2CO[C@H]1CN(C)C(=O)[C@@H]1CCCN1C`, the viability index is 1.05 ± 0.013.

Molecule `COc1ccccc1-c1ccc([C@H]2[C@@H]3CN(S(=O)(=O)c4ccc(C)cc4)C[C@H]2N3)cc1` displayed a viability index of 0.958 ± 0.015.

Molecule `COc1ccccc1NC(=O)N1[C@@H](C#N)[C@H](c2ccccc2)[C@@H]1CO` yielded a viability index of 1.11 ± 0.056.

Turning to `Cc1ccccc1-c1ccc2c(c1)O[C@H](CN(C)C(=O)Nc1ccc(C(F)(F)F)cc1)[C@@H](C)CN([C@H](C)CO)S2(=O)=O`, the viability index was 0.947 ± 0.068.

The molecule `COc1ccc2c3c([C@H](CO)N(C[C@]33CCN(CC3)S(=O)(=O)c3cccc(C)c3)C(=O)Nc3ccc(F)cc3)n(C)c2c1` had a viability index of 0.955 ± 0.1.

On to `CO[C@@H]1CN(C)C(=O)c2cc(NC(=O)c3ccc4c(c3)OCO4)ccc2OC[C@H](C)N(CCC(F)(F)F)C[C@@H]1C`, for which the viability index came to 1.13 ± 0.058.

Consider `COC(=O)C[C@H]1CC[C@H]2[C@@H](COc3ccc(NS(=O)(=O)c4ccc(C)cc4)cc3C(=O)N2C)O1`, for which the viability index turned out to be 1.114 ± 0.0014.

On to `Cc1noc(C)c1NC(=O)N(C)C[C@@H]1OCCCC[C@@H](C)Oc2ccc(NC(=O)CCCCCC(=O)Nc3ccccc3N)cc2C(=O)N([C@H](C)CO)C[C@@H]1C`, for which the viability index came to 1.07 ± 0.1.

Consider `CCS(=O)(=O)NCC[C@H]1CC[C@H](NS(=O)(=O)c2ccccc2C)[C@@H](CO)O1`, for which the viability index amounted to 0.916 ± 0.053.

In the case of `O=C(C[C@@H]1CC[C@H]2NC[C@H](O)COC[C@@H]2O1)NCCc1ccncc1`, the viability index was 0.983 ± 0.1.

The molecule `COc1ccc2c3c([nH]c2c1)[C@H](CO)N(C[C@]31CCN(CC2CCCCC2)CC1)S(=O)(=O)c1cn(C)cn1` had a viability index of 1.062 ± 0.009.

For `COc1ccccc1S(=O)(=O)N[C@H]1C=C[C@@H](CC(=O)N2CCOCC2)O[C@@H]1CO`, the viability index was 1.1 ± 0.033.

`Cc1ccc(S(=O)(=O)Nc2ccc3c(c2)C(=O)N(C)[C@H]2CC[C@H](CC(=O)NCCc4ccncc4)O[C@@H]2CO3)cc1` came in with a viability index of 0.987 ± 0.017.

With `C[C@@H]1CN([C@H](C)CO)C(=O)c2cccc(NS(=O)(=O)c3ccc(F)cc3)c2O[C@H]1CN(C)Cc1ccc(Cl)c(Cl)c1`, the viability index was 0.967 ± 0.045.

Regarding `CO[C@@H]1CC[C@@H]2CCOc3c(C#N)cccc3C(=O)N(C)C[C@H](c3ccccc3)CC(=O)N(C)C[C@@H]1O2`, the viability index stood at 1.046 ± 0.0064.

`COc1ccc2c3c([nH]c2c1)[C@H](CO)N(C[C@]31CCN(CC1)S(C)(=O)=O)C(=O)C1CCOCC1` came in with a viability index of 1 ± 0.13.

`COc1ccccc1NC(=O)N1C[C@@H](C)[C@H](OC)CN(C)C(=O)c2cc(NC(=O)c3cnccn3)ccc2OC[C@H]1C` had a viability index of 1.003 ± 0.0039.

Turning to `C[C@@H]1CN([C@H](C)CO)C(=O)CCCn2cc(nn2)CO[C@H]1CN(C)Cc1ccccc1`, the viability index came out at 1.04 ± 0.033.

With `CCC(=O)N(C)C[C@H]1[C@@H](c2ccc(-c3cccc(F)c3)cc2)[C@@H](CO)N1C(C)=O`, the viability index amounted to 0.968 ± 0.02.

The molecule `C[C@@H]1CCCCO[C@@H](CN(C)C(=O)Nc2ccc(C(F)(F)F)cc2)[C@@H](C)CN([C@H](C)CO)C(=O)c2cc(NS(=O)(=O)c3cn(C)cn3)ccc2O1` displayed a viability index of 1.03 ± 0.17.

The molecule `COCC(=O)N(C[C@H]1N[C@H](CO)[C@@H]1c1ccc(C2=CCCC2)cc1)C1CCCC1` had a viability index of 0.924 ± 0.07.

In turn, `C[C@H]1CN([C@@H](C)CO)C(=O)c2ccccc2-c2ccccc2CO[C@H]1CN(C)C(=O)[C@H](Cc1ccccc1)N(C)C` yielded a viability index of 1.03 ± 0.017.

`CCS(=O)(=O)Nc1ccc2c(c1)C(=O)N(C)C[C@H](OC)[C@H](C)CN(CC1CCCCC1)[C@H](C)CO2` came in with a viability index of 0.995 ± 0.1.

`Cc1ccc(OC(=O)N(C)C[C@H]2OCc3ccccc3-c3ccccc3C(=O)N([C@H](C)CO)C[C@@H]2C)cc1` showed a viability index of 0.961 ± 0.063.

As for `O=C(C[C@H]1CC[C@H](NC(=O)Nc2ccc(C(F)(F)F)cc2)[C@H](CO)O1)NCc1cccc(F)c1`, the viability index stood at 0.937 ± 0.033.

As to `O=C(NCC1CC1)[C@H]1[C@H](CO)[C@H]2Cn3c(ccc(-c4ccccc4F)c3=O)[C@@H]1N2Cc1cncnc1`, the viability index was determined as 1.02 ± 0.038.

For `O=C(C[C@@H]1CC[C@@H]2[C@H](COC[C@H](O)CN2Cc2nccs2)O1)N1CCC(Cc2ccccc2)CC1`, the viability index is 1.04 ± 0.11.

Turning to `CO[C@@H](CN(C)Cc1cc(F)ccc1F)[C@H](C)CN(C(=O)Nc1ccc(C(F)(F)F)cc1)[C@H](C)CO`, the viability index was 1.14 ± 0.029.

In turn, `CN(C)C(=O)C[C@H]1CC[C@H]2[C@@H](COc3ccc(NC(=O)C4CCCCC4)cc3C(=O)N2C)O1` came in with a viability index of 1.05 ± 0.074.

For `CCCNC(=O)N1[C@H](C#N)[C@H](c2ccc(-c3ccccc3F)cc2)[C@@H]1CO`, the viability index worked out at 0.911 ± 0.019.

The molecule `CN(C)CC(=O)N1[C@H](C#N)[C@H](c2ccc(C#CC3CCCCC3)cc2)[C@H]1CO` gave a viability index of 1 ± 0.026.
